Among all 43,000 compounds or so, about 200 (0.47%) were called active. Inconclusive results (about 12%) are left out. The call rests on the fitted dose curve; in most records, active means well fitted cell-killing curve with a large enough effect; inconclusive means small, poorly fitted or top-dose-only effect, or effect the other way; inactive means flat fitted curve, though single readings scatter. Some of the results follow.
Assay: Cell viability qHTS assay in S16 Pmp22-F2sN cells; further: nearly all actives have a fitted effect of over 65% in size
Settings: S16 Pmp22-F2sN Schwann cells (luciferase reporters placed in the Pmp22 gene) viability, CellTiter-Glo, 24 h; series mostly up to 57.5 µM; activity change, negative = cytotoxicity: at the top concentration
Method in brief: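 S16 Schwann cells carrying the Pmp22-F2sN reporter, seeded in 1536-well format, were exposed to library compounds for 24 h at 37C. Viability was read as CellTiter-Glo luminescence after 15 min at room temperature.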
For COc1cccc(-c2nn(C)c3sc(C(=O)NCc4cc(OC)ccc4OC)cc23)c1, the “activity change, negative = cytotoxicity” value was inactive: -18.7%.
For COc1ccc(OC)c(NC(=O)c2cc3c(n(-c4ccc(Cl)cc4)c2=O)CC(C)(C)CC3=O)c1, the “activity change, negative = cytotoxicity” value was inactive: -0.777%.
In the case of COc1ccccc1NC(c1ccc(Cl)cc1)c1nnc(-c2cccc(F)c2)o1 (stereo not given), the “activity change, negative = cytotoxicity” value is reported as inactive: -7.21%.
With CC(=O)c1ccc(NC(=O)CCc2c(C)nc3c(c(C)nn3-c3ccc(C)cc3)c2C)cc1 the “activity change, negative = cytotoxicity” value was inactive: -21.9%.
With O=C(COc1ccccc1Cl)Nc1cc(-c2ccccc2F)nn1-c1ccccc1 the “activity change, negative = cytotoxicity” value was inactive: 31.2%.
In the case of CNS(=O)(=O)c1cn(CC(=O)N2CCN(c3ccccc3F)CC2)cc1S(=O)(=O)NC, the “activity change, negative = cytotoxicity” value is reported as inactive: 2.94%.
For CCc1ccc(OC(C)c2nc(-c3ccc(-n4cccc4)cc3)no2)cc1 (stereo not given), the “activity change, negative = cytotoxicity” value was inactive: 0.985%.
In the case of Cc1ccc(CN(Cc2ccco2)C(=O)COc2ccccc2C)cc1, the “activity change, negative = cytotoxicity” value is reported as inactive: -10.7%.
For CCOC(=O)c1ccc(NC(=O)CCc2c(C)nc3c(c(C)nn3-c3ccccc3)c2C)cc1, the “activity change, negative = cytotoxicity” value was inactive: 2.21%.
With O=S(=O)(NCc1csc(-c2ccccc2)n1)c1cccc(F)c1 the “activity change, negative = cytotoxicity” value was inactive: 5.61%.
In the case of Cc1oc2ccc(O)c(CN(C)Cc3ccccc3)c2c1C(=O)Nc1ccccc1, the “activity change, negative = cytotoxicity” value is reported as inactive: -5.73%.
With O=C(CCc1cn(Cc2ccc(F)cc2)c2ccccc12)NCCc1ccc(Cl)cc1 the “activity change, negative = cytotoxicity” value was inactive: 1.96%.
For CC(=O)N1CCOc2cc(S(=O)(=O)NC(C)c3ccccc3)c(Cl)cc21 (stereo not given), the “activity change, negative = cytotoxicity” value was inactive: 8.21%.
For Cc1cccc(C(=O)Nc2sc3c(c2C(=O)N2CCCCC2)CCC(C)C3)c1 (stereo not given), the “activity change, negative = cytotoxicity” value was inactive: -19.2%.
For COc1cccc(NC(=O)CSc2nc3ccc(NC(=O)c4cccs4)cc3s2)c1, the “activity change, negative = cytotoxicity” value was inactive: 25.5%.
In the case of Cc1ccc(NC(=O)Nc2nnc(N3CCCC3)s2)cc1, the “activity change, negative = cytotoxicity” value is reported as inactive: 15.5%.
For CCOC(=O)c1c(NC(=O)/C=C/c2ccc(C(C)C)cc2)sc2c1CCC2, the “activity change, negative = cytotoxicity” value was inactive: 11.2%.
With Cn1cnc(S(=O)(=O)N2CCC(C(=O)NCc3ccccc3Cl)CC2)c1 the “activity change, negative = cytotoxicity” value was inactive: -0.142%.
With CCN(c1ccccc1)c1nnc(NC(=O)Nc2ccc(Br)cc2)s1 the “activity change, negative = cytotoxicity” value was inactive: 6.26%.
With COc1ccc(NC(=O)Nc2nnc(C)s2)cc1 the “activity change, negative = cytotoxicity” value was inactive: 10.1%.
In the case of Cc1ccccc1C(=O)Nc1ccc(OCc2cc(=O)n3cccc(C)c3n2)cc1, the “activity change, negative = cytotoxicity” value is reported as inactive: 6.85%.
In the case of CC1=C(c2ccc(C)c(C)c2)S(=O)(=O)N=C1N1CCC(C(=O)N2CCC(C(N)=O)CC2)CC1, the “activity change, negative = cytotoxicity” value is reported as inactive: 2.58%.
In the case of O=C1COc2cc(S(=O)(=O)NCc3ccco3)c(Cl)cc2N1, the “activity change, negative = cytotoxicity” value is reported as inactive: 4.69%.
For O=c1c2oc3ccccc3c2n(Cc2ccc(Cl)cc2)c(=O)n1Cc1ccco1, the “activity change, negative = cytotoxicity” value was inactive: -17.3%.
With CCc1ccccc1N(CC)C(=O)c1c(C)oc2ncnc(N3CCOCC3)c12 the “activity change, negative = cytotoxicity” value was inactive: 8.39%.
With CCOC(=O)C1CCN(c2nc3c(S(=O)(=O)c4ccccc4)nnn3c3ccsc23)CC1 the “activity change, negative = cytotoxicity” value was inactive: 11.2%.
For Cc1cccc(CN2CCC(CNC(=O)c3c(C)oc4ncnc(N5CCCCC5)c34)CC2)c1, the “activity change, negative = cytotoxicity” value was inactive: 17.7%.
With CCN(C(=O)C1CCC(CNS(=O)(=O)c2cccc3nsnc23)CC1)c1ccc(C)c(C)c1 (stereo not given) the “activity change, negative = cytotoxicity” value was inactive: -28.5%.
With CC(Sc1nc(=O)cc(N)n1CCc1ccccc1)C(=O)Nc1ccc(Cl)cc1 (stereo not given) the “activity change, negative = cytotoxicity” value was inactive: -28.9%.
In the case of CN(C(=O)c1cc2nc(-c3ccco3)cc(C(F)(F)F)n2n1)c1ccc(OC(F)(F)Cl)cc1, the “activity change, negative = cytotoxicity” value is reported as inactive: 2.15%.
For CCn1c(=O)sc2cc(NS(=O)(=O)c3ccc(F)c(C)c3)ccc21, the “activity change, negative = cytotoxicity” value was inactive: -15.3%.
With Cc1ccc(CSc2cn(CC(=O)N3CCCC3)c3ccccc23)cc1 the “activity change, negative = cytotoxicity” value was inactive: -3.14%.
For O=C(CCS(=O)(=O)c1cc(Br)cc2c1N(C(=O)C1CC1)CC2)NCc1ccc(Cl)cc1, the “activity change, negative = cytotoxicity” value was inactive: -0.74%.
For O=C(Nc1cc(-c2nc3ccccc3o2)ccc1Cl)c1ccc(N2CCCCC2)c([N+](=O)[O-])c1, the “activity change, negative = cytotoxicity” value was inactive: 8.52%.
In the case of CCOC(=O)c1c(-c2ccc(Br)cc2)csc1NC(=O)c1ccc(F)cc1, the “activity change, negative = cytotoxicity” value is reported as inactive: -0.884%.
With COC(=O)c1ccccc1NC(=O)CSc1nc2ccccc2nc1Cc1ccccc1OC the “activity change, negative = cytotoxicity” value was inactive: 14.2%.
With COc1ccc(C2c3c(n(C)c4ccccc34)C(=O)N2CC(=O)Nc2ccc(C)c(Cl)c2)cc1 (stereo not given) the “activity change, negative = cytotoxicity” value was inactive: 2.59%.
With Cc1ccc(-c2nc(SCCOc3ccccc3C)n3[nH]c(=O)cc3n2)cc1 the “activity change, negative = cytotoxicity” value was inactive: 19.4%.
With Cc1ccc(NC(=O)Cn2cc(S(=O)(=O)c3ccc(C)cc3)c(=O)c3cc4c(cc32)OCO4)cc1 the “activity change, negative = cytotoxicity” value was inactive: 5.87%.
For COc1ccc(C2CC(=O)c3cc(-c4nc(-c5ccc(Cl)cc5)c(C)s4)c(=O)[nH]c3C2)cc1 (stereo not given), the “activity change, negative = cytotoxicity” value was inactive: -1.17%.
With CCc1nnc(SCc2cc(C)ccc2C)c2cc3sc(C)cc3n12 the “activity change, negative = cytotoxicity” value was inactive: -9.82%.
With COc1ccc(NC(=O)C(C)n2nc(-c3ccc(C)c(C)c3)ccc2=O)cc1OC (stereo not given) the “activity change, negative = cytotoxicity” value was inactive: -0.497%.
In the case of CCOC(=O)c1c(C)[nH]c(C)c1S(=O)(=O)N1CCC(C(=O)N2CCN(c3ccccc3F)CC2)CC1, the “activity change, negative = cytotoxicity” value is reported as inactive: 3.31%.
With COc1cccc(NC(=O)CSC2=Nc3ccccc3C3=NC(CC(=O)NC4CCCCC4)C(=O)N23)c1 (stereo not given) the “activity change, negative = cytotoxicity” value was inactive: -5.85%.
With CC(=O)c1ccc(N2CCN(c3ccc(NC(=O)c4ccc(F)cc4)cc3C(=O)O)CC2)cc1 the “activity change, negative = cytotoxicity” value was inactive: -16.9%.
In the case of Cc1cc(C)c2c(=O)cc(C(=O)Nc3ccccc3C(F)(F)F)oc2c1, the “activity change, negative = cytotoxicity” value is reported as inactive: 4.08%.
With CCc1ccc(CNC(=O)c2ccc(NC(=O)N3CC(C)Sc4ccccc43)cc2)cc1 (stereo not given) the “activity change, negative = cytotoxicity” value was inactive: -0.633%.
In the case of O=S(=O)(Nc1nc2n(n1)C(c1ccc(F)cc1)C=C(c1ccccc1)N2)c1ccccc1 (stereo not given), the “activity change, negative = cytotoxicity” value is reported as inactive: 5.05%.
With COc1ccc(CNC(=O)c2ccc(N3CCCC3)c(NC(=O)NCc3ccc(C)cc3)c2)cc1 the “activity change, negative = cytotoxicity” value was inactive: -2.36%.
With Cc1nn2c(-c3cccc(NC(=O)c4ccccc4)c3)nnc2c2ccccc12 the “activity change, negative = cytotoxicity” value was inactive: 9.36%.
With CCOC(=O)c1c(C)oc2ccc(N(C(=O)Oc3ccccc3)S(=O)(=O)c3ccc(CC)cc3)cc12 the “activity change, negative = cytotoxicity” value was inactive: -1.64%.
In the case of CC(C)c1ccc(OCC(=O)NC(Cc2c[nH]c3ccccc23)C(=O)O)cc1 (stereo not given), the “activity change, negative = cytotoxicity” value is reported as inactive: 6.68%.
In the case of Cc1cccc(OC(=O)CSc2nnc(CNC(=O)c3ccccc3)o2)c1C, the “activity change, negative = cytotoxicity” value is reported as inactive: 10.8%.
With O=C(Nc1ccc(F)cc1)c1oc2ccccc2c1NC(=O)C12CC3CC(CC(C3)C1)C2 the “activity change, negative = cytotoxicity” value was inactive: 15.4%.
For COc1ccc(CCNC(=O)c2ccc3c(c2)N(Cc2c(F)cccc2Cl)C(=O)CS3)cc1OC, the “activity change, negative = cytotoxicity” value was inactive: -5.71%.
With Cc1cccc(N2CCN(C(=O)CCc3nnc4n(CC(C)C)c(=O)c5ccccc5n34)CC2)c1C the “activity change, negative = cytotoxicity” value was inactive: -1.74%.
For COc1ccc(-c2cc(C)no2)cc1S(=O)(=O)N1CCOc2ccccc21, the “activity change, negative = cytotoxicity” value was inactive: -3.61%.
For COc1ccc(-c2cn3c(n2)sc2cc(C(=O)Nc4ccc(C)c(C)c4)ccc23)cc1, the “activity change, negative = cytotoxicity” value was inactive: 16%.
With O=C(Cc1ccccc1)N(Cc1cccnc1)c1nc2c(F)cc(F)cc2s1 the “activity change, negative = cytotoxicity” value was inactive: -5.53%.
In the case of O=C(CN1C(=O)COc2ccccc21)NCCc1ccc(Cl)cc1, the “activity change, negative = cytotoxicity” value is reported as inactive: 0.248%.
On the % scale 0 is the no-effect control and ±100 the full control effect.
